This note sets out measurements from paper PMC12820563, “FoxP3 forms a head-to-head dimer in vivo and stabilizes its multimerization on adjacent microsatellites”.

The other results are listed elsewhere or left out.

This assay deals with T1, MBP-FoxP1dN (Mus musculus, UniProt P58462 326-579).
T1 sequence: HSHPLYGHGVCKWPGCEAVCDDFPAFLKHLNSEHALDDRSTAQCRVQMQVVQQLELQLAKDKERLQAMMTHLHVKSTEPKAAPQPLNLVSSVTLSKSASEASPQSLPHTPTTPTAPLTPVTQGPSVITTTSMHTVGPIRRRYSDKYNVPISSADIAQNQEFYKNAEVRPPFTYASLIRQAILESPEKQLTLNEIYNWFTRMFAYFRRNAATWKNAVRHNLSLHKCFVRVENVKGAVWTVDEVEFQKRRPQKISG
Kind of assay: PD-seq (MBP pull-down with sequencing); 20 mM Tris-HCl pH 7.5, 100 mM NaCl, 1.5 mM MgCl2, 0.4 uM protein, 0.1 uM dsDNA library, 30 min, room temperature, amylose pull-down; high values mean tight binding. To be noted: protein: recombinant; tags: His6-MBP; chain copies: 2; dsDNA, one strand shown. In a few lines:
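A degenerate double-stranded DNA library, filled in with Klenow, was added at 0.1 µM to 0.4 µM His6-MBP-tagged mouse FoxP3 or FoxP1 fragment lacking the N-terminus, expressed in E. coli. Incubation lasted 30 min at room temperature in Tris pH 7.5 buffer with NaCl and MgCl2, after which complexes were collected on amylose resin, washed three times, digested with proteinase K to free the DNA, barcoded by PCR and sequenced by Illumina. Binding is the pooled-replicate reads-per-million enrichment of pull-down over input.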
Regarding “GATGATTGTTCTCCCAGCTGATGAATTGGCACCTTCGAGTAAACAAATTTTCCTAATCTTTCTGTTCAAGCGCCATCTAC”, the binding signal is 0.842 RPM ratio (pull-down/input). “GATGATTGTTCTCCCAGCTGATGAATTCGTCAATTCGAGTAAACAAATTTTCCTAATCTTTCTGTTCAAGCGCCATCTAC”: the binding signal is 0.981 RPM ratio (pull-down/input). “GATGATTGTTCTCCCAGCTGATGAATTTGTGGTTTCGAGTAAACAAATTTTCCTAATCTTTCTGTTCAAGCGCCATCTAC”: the binding signal was 1.14 RPM ratio (pull-down/input). “GATGATTGTTCTCCCAGCTGATGAATTACTATGATCGAGTAAACAAATTTTCCTAATCTTTCTGTTCAAGCGCCATCTAC”: the binding signal is 1.1 RPM ratio (pull-down/input). In the case of “GATGATTGTTCTCCCAGCTGATGAATTAGGAGGTTCGAGTAAACAAATTTTCCTAATCTTTCTGTTCAAGCGCCATCTAC” it was 0.764 RPM ratio (pull-down/input); in that of “GATGATTGTTCTCCCAGCTGATGAATTCTGTCGATCGAGTAAACAAATTTTCCTAATCTTTCTGTTCAAGCGCCATCTAC”, 0.929 RPM ratio (pull-down/input). The result for “GATGATTGTTCTCCCAGCTGATGAATTCGCCCACTCGAGTAAACAAATTTTCCTAATCTTTCTGTTCAAGCGCCATCTAC” reads 0.8 RPM ratio (pull-down/input). In the case of “GATGATTGTTCTCCCAGCTGATGAATTTGTTGTGTCGAGTAAACAAATTTTCCTAATCTTTCTGTTCAAGCGCCATCTAC” it was 2.48 RPM ratio (pull-down/input); in that of “GATGATTGTTCTCCCAGCTGATGAATTGGAGGGATCGAGTAAACAAATTTTCCTAATCTTTCTGTTCAAGCGCCATCTAC”, 0.797 RPM ratio (pull-down/input); in that of “GATGATTGTTCTCCCAGCTGATGAATTAAACAAATCGAGTAAACAAATTTTCCTAATCTTTCTGTTCAAGCGCCATCTAC”, 2.02 RPM ratio (pull-down/input). With “GATGATTGTTCTCCCAGCTGATGAATTGAGCGGATCGAGTAAACAAATTTTCCTAATCTTTCTGTTCAAGCGCCATCTAC”, the binding signal was 0.789 RPM ratio (pull-down/input). In the case of “GATGATTGTTCTCCCAGCTGATGAATTTTACGAATCGAGTAAACAAATTTTCCTAATCTTTCTGTTCAAGCGCCATCTAC”, the binding signal is 0.971 RPM ratio (pull-down/input). As for “GATGATTGTTCTCCCAGCTGATGAATTCCTCCTGTCGAGTAAACAAATTTTCCTAATCTTTCTGTTCAAGCGCCATCTAC”, the binding signal was 0.729 RPM ratio (pull-down/input).

Take “GATGATTGTTCTCCCAGCTGATGAATTGTCTAGGTCGAGTAAACAAATTTTCCTAATCTTTCTGTTCAAGCGCCATCTAC”: the binding signal was 0.931 RPM ratio (pull-down/input).

As to “GATGATTGTTCTCCCAGCTGATGAATTAGGTCTGTCGAGTAAACAAATTTTCCTAATCTTTCTGTTCAAGCGCCATCTAC”, the binding signal was 0.793 RPM ratio (pull-down/input). “GATGATTGTTCTCCCAGCTGATGAATTCAACGGATCGAGTAAACAAATTTTCCTAATCTTTCTGTTCAAGCGCCATCTAC”: the binding signal is 0.913 RPM ratio (pull-down/input). The result for “GATGATTGTTCTCCCAGCTGATGAATTTGGCACATCGAGTAAACAAATTTTCCTAATCTTTCTGTTCAAGCGCCATCTAC” reads 1.04 RPM ratio (pull-down/input); that for “GATGATTGTTCTCCCAGCTGATGAATTACGTATCTCGAGTAAACAAATTTTCCTAATCTTTCTGTTCAAGCGCCATCTAC”, 1.05 RPM ratio (pull-down/input). Consider “GATGATTGTTCTCCCAGCTGATGAATTCTGAAGCTCGAGTAAACAAATTTTCCTAATCTTTCTGTTCAAGCGCCATCTAC”, for which the binding signal was 0.786 RPM ratio (pull-down/input).

For the sequence “GATGATTGTTCTCCCAGCTGATGAATTTCTGTGCTCGAGTAAACAAATTTTCCTAATCTTTCTGTTCAAGCGCCATCTAC”, the binding signal is 0.877 RPM ratio (pull-down/input). The result for “GATGATTGTTCTCCCAGCTGATGAATTCCTATCTTCGAGTAAACAAATTTTCCTAATCTTTCTGTTCAAGCGCCATCTAC” reads 0.802 RPM ratio (pull-down/input). In the case of “GATGATTGTTCTCCCAGCTGATGAATTATTCCGGTCGAGTAAACAAATTTTCCTAATCTTTCTGTTCAAGCGCCATCTAC” it was 0.907 RPM ratio (pull-down/input); in that of “GATGATTGTTCTCCCAGCTGATGAATTTATCAGATCGAGTAAACAAATTTTCCTAATCTTTCTGTTCAAGCGCCATCTAC”, 1.03 RPM ratio (pull-down/input); in that of “GATGATTGTTCTCCCAGCTGATGAATTGATTCCTTCGAGTAAACAAATTTTCCTAATCTTTCTGTTCAAGCGCCATCTAC”, 1.05 RPM ratio (pull-down/input).

In the case of “GATGATTGTTCTCCCAGCTGATGAATTAGTCACGTCGAGTAAACAAATTTTCCTAATCTTTCTGTTCAAGCGCCATCTAC”, the binding signal is 0.916 RPM ratio (pull-down/input). The result for “GATGATTGTTCTCCCAGCTGATGAATTTAGTTATTCGAGTAAACAAATTTTCCTAATCTTTCTGTTCAAGCGCCATCTAC” reads 1.22 RPM ratio (pull-down/input); that for “GATGATTGTTCTCCCAGCTGATGAATTTTTATTGTCGAGTAAACAAATTTTCCTAATCTTTCTGTTCAAGCGCCATCTAC”, 2.51 RPM ratio (pull-down/input). The result for “GATGATTGTTCTCCCAGCTGATGAATTGGTACTGTCGAGTAAACAAATTTTCCTAATCTTTCTGTTCAAGCGCCATCTAC” reads 1.04 RPM ratio (pull-down/input). Turning to “GATGATTGTTCTCCCAGCTGATGAATTCACAATGTCGAGTAAACAAATTTTCCTAATCTTTCTGTTCAAGCGCCATCTAC”, the binding signal was 0.966 RPM ratio (pull-down/input). Turning to “GATGATTGTTCTCCCAGCTGATGAATTTGGTCCGTCGAGTAAACAAATTTTCCTAATCTTTCTGTTCAAGCGCCATCTAC”, the binding signal was 0.9 RPM ratio (pull-down/input). In the case of “GATGATTGTTCTCCCAGCTGATGAATTGGGGCGATCGAGTAAACAAATTTTCCTAATCTTTCTGTTCAAGCGCCATCTAC” it was 0.85 RPM ratio (pull-down/input); in that of “GATGATTGTTCTCCCAGCTGATGAATTACTTACGTCGAGTAAACAAATTTTCCTAATCTTTCTGTTCAAGCGCCATCTAC”, 1.12 RPM ratio (pull-down/input).
